Measured values as given in PubChem BioAssay AID651568 (National Center for Advancing Translational Sciences (NCATS), 2012).
About 55 (5%) of roughly 1,200 compounds were called active. This list was built around the results that the source calls inconclusive (neither active nor inactive); the mix of calls is not that of the screen. The call rests on the fitted dose curve; in most records, active means well fitted inhibition curve with a large enough effect; inconclusive means small, poorly fitted or top-dose-only effect; inactive means no such curve, though single readings can be large or run the other way. No potency is given beside an inconclusive call; the fits are too rough.

experiment: qHTS Assay to Find Inhibitors of Chronic Active B-Cell Receptor Signaling: Hit Validation in Renilla Reporter Assay; conditions: TMD8 IkB-Renilla luciferase reporter, NF-kB signaling; series mostly up to 57.5 µM; activity change, negative = inhibition: at the top concentration; further: nearly all actives have a fitted effect of over 70% in size
Text: Diffuse large B-cell lymphoma (DLBCL) is the most common category of non-Hodgkin lymphoma, with ~20,000 new cases per year in the United States. DLBCL should be regarded as a collection of different neoplasms. Microarray gene expression analysis has defined two principal types of DLBCL, named for their similarity to normal B cell stages or activation states: a germinal center B-cell (GCB) type, and an activated B-cell (ABC) type. In ABC-DLBCL, a constitutive high-level activity of the NF-kappaB family of transcription factors has been observed (1) and NF-kappaB target genes are more highly expressed in ABC primary tumors than in GCB tumors. Functional studies have shown a constitutive high-level activity of the IkappaB (inhibitor of kappa-B) kinase (IKK) complex. […] Further analysis of DLBCL primary tumors for NF-kappaB target gene expression imply that although CARD11 is required for constitutive IKK activity in all ABC-DLBCL lines, mutations in CARD11 may be the root cause of IKK activation only in lines or tumors with such mutations. In other words, CARD11 mutations may explain NF-kappaB activation in only 10% of ABC-DLBCL cases. […] This process has been termed 'chronic active BCR signaling' (CABS). The goal of this screen is to find small-molecule inhibitors of the CABS pathway found in ABC-DLBCL lines using a cell-based assay that measures IkappaBalpa stability, which has already been extensively validated in the OCI-Ly3 line (PubChem AID:445; REF: 4). […] Hits from the primary screen were tested in this orthogonal secondary assay. NIH Molecular Libraries Probe Production Network [MLPCN] NIH Chemical Genomics Center [NCGC] MLPCN Grant: R03 DA031086 PI Name: Dr. R. Eric Davis
The IkB-Photinus/Renilla reporter assay differs from the primary assay in that the reporters are constitutively expressed, and based on luciferases that are different from the click beetle luciferases and each other. These differences should help to eliminate artifactual sources of activity specific to the primary assay. This assay uses the Dual-Glo substrate from Promega; extensively validated in a 96-well format, it could be converted to a smaller-well format. All lines needed for the IkB-Photinus/Renilla assay have already been prepared and extensively validated
On the % scale 0 is the no-effect control and ±100 the full control effect; potency means the concentration at half of the fitted maximal effect; tags describe the fitted curve by direction and shape.

Row | SMILES | activity change, negative = inhibition | Potency
1 | COc1ccc(Cc2nccc3cc(OC)c(OC)cc23)cc1OC | inactive: -12.3% | 
2 | CC[C@]12CC[C@H](O)CC1=CCC1C2CC[C@]2(C)C(=O)CCC12 (stereo not given in full) | inactive: -2.46% | 
3 | C/C(=N\N1CCCCC1)c1c(O)[nH]c(=O)[nH]c1=O | inactive: -0.419% | 
4 | CCCC[C@@H](C)C[C@@H](C)C(=O)N(C)[C@@H](CC(C)C)C(=O)N[C@H](C(=O)N(C)[C@H](C(=O)N1C[C@@H](O)C[C@H]1C(=O)N1C(=O)C=C[C@@H]1C)C(C)C)C(C)OC(C)=O (stereo not given in full) |  | active: 26.9 µM
5 | CN(C)C(=S)SSC(=S)N(C)C |  | inconclusive [inhibitor, single point]
6 | COc1cc(/C=C/[N+](=O)[O-])ccc1O |  | inconclusive [inhibitor, single point]
7 | O=C(/C=C/c1cccs1)c1cc(Cl)ccc1OC(=O)N1CCOCC1 |  | inconclusive [inhibitor, single point]
8 | O=C(NC1CCCCC1)Oc1cc2oc(=O)sc2cc1Cl |  | inconclusive [inhibitor, single point]
9 | O=c1c2ccccc2nc(/C=C/c2ccc([N+](=O)[O-])o2)n1-c1ccc(O)cc1 |  | inconclusive [inhibitor, full curve]
10 | Cc1cc(C)c(C(=O)CN2CCOCC2)c(C)c1 | inactive: -9.8% | 
11 | COc1cc2c(c(OC)c1OC)-c1ccc(O)c(=O)cc1C(NC(C)=O)CC2 (stereo not given) | inactive: -5.2% | 
12 | CN1C(=O)CN=C(c2ccc(Cl)cc2)c2cc(Cl)ccc21 | inactive: 3.92% | 
13 | O=c1c2ccccc2[se]n1-c1ccccc1 |  | active: 15.1 µM
14 | CCC(=NCCC(c1ccccc1)c1ccccc1)c1c(O)[nH]c(=O)[nH]c1=O |  | inconclusive [inhibitor, single point]
15 | CN1CCc2cccc3c2[C@H]1Cc1ccc(O)c(O)c1-3 |  | inconclusive [inhibitor, single point]
